For data set [1], the target named is T1, recombinant ENOX2 (Homo sapiens, UniProt Q16206).
T1 sequence (Q16206 1-610): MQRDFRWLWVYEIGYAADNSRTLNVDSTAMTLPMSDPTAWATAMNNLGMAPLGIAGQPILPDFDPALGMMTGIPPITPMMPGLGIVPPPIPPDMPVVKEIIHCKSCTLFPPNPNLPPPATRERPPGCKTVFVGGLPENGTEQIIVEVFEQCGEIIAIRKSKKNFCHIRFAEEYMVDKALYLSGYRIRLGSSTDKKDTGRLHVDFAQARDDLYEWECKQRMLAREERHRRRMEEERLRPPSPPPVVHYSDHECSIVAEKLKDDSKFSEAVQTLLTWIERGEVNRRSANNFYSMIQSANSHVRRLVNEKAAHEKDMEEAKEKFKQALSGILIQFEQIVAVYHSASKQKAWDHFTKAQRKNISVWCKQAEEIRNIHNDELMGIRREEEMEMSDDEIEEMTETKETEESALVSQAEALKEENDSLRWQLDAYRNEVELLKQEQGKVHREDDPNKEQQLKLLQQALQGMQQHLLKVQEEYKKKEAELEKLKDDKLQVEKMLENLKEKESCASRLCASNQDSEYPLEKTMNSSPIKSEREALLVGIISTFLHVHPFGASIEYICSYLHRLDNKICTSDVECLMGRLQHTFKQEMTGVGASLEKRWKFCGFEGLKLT
The data set is described as follows: 1D Western blot reactivity. It is filed as binding. Particulars: membranes incubated with scFv for 17 hours, alkaline phosphatase linked S-protein 2 hours. As to the method: 1D Western blot analysis of scFvSC. Reactivity of scFv(SC) toward recombinant ENOX2 was analyzed by 1 dimensional western blot. Recombinant ENOX2 was separated by SDS-PAGE and transferred to nitrocellulose membranes. Nitrocellulose membranes were incubated with scFv(SC) for 17 hours and alkaline phosphatase linked S-protein for 2 hours. […] For comparison, scFv(S) was included in the western blot analysis.
(In general: A western blot detects proteins with antibodies after separation by electrophoresis.)

Data set [2] has as its target T1, recombinant ENOX2. Kind of data set: Western blot mixing experiments under non-reducing conditions (cross-linking of ScFV to ENOX2). It counts as binding. Set-up: between the full length ScFV and the 72 kDa full length ENOX2. Particulars: FIG. 12.
Data set [3] has as its target T1, recombinant ENOX2. Kind of data set: Binding of stored scFv to recombinant ENOX2 (storage stability). It is filed as physicochemical. As to the method: A major factor, however, in determining the efficacy of the scFv is its propensity to aggregate. After only ten days of storage at either −70° C. or 4° C., the binding of the purified scFv to recombinant ENOX2 protein was reduced by more than 90%. After much study, this loss of efficacy was traced solely to protein aggregation. […] Aggregation of the functionalized scFv antibody as determined from light scattering measurements is achieved by storage in 50% glycerol and stored at −70° C., essential ingredients in the overall protocol to achieve the desired level of sensitivity and specificity. Activity is lost rapidly by storage in the absence of glycerol.

From patent US9612243B1, “Methods and compositions for targeted two-dimensional western blot analysis for early cancer detection and cancer diagnosis up to ten years in advance of clinical symptoms of malignant disease” (Mor-NuCo Enterprises, Inc., priority 2016, dated 2017) come the findings set out here.

B1: scFv(SC): recombinant anti-ENOX2 single chain variable region antibody with Gly/Ser linker containing two cysteines, GST tag, SEQ ID NO:11 (protein, listed as Homo sapiens)
scFv: [about 200 residues omitted]SDLVPRGSPGIPEVKLQESGTEVVKPGASVKLSCKASGYIFTSYDIDWVRQTPEQGLEWIGWIFPGEGSTEYNEKFKGRATLSVDKSSSTAYMELTRLTSEDSAVYFCARGDYYRRYFDLWGQGTTVTVSSGGGGSCGGGSCGGGSENVLTQSPAIMSASPGERVTMTCSASSSIRYIYWYQQKPGSSPRLLIYDTSNVAPGVPFRFSGSGSGTSYSLTINRMEAEDAATYYCQEWSGYPYTFGGGTKLELKA
modifications: GST tag
For the molecule B1, the “reactivity toward recombinant ENOX2” value in data set [1] is recorded as “reacted toward recombinant ENOX2”. In addition, in data set [2], the “cross-linking of ScFV with recombinant ENOX2” value is “disulfide bond formation between the full length ScFV and the 72 kDa full length ENOX2”. For the same molecule, the “reduction of binding of purified scFv to recombinant ENOX2 protein” value in data set [3] (after only ten days of storage at either −70° C. or 4° C.) is reported as “more than 90%”. Also, in data set [3] (storage in the absence of glycerol), the activity on storage entry was “lost rapidly”.
